Results on 167 variants are retold here after the RNAGym collection of RNA variant scans (doi:10.7554/elife.90254).

The source gives no read counts; variants with many changes may rest on few reads.

B1: LINE1-full (parent)
chain: UACGUAGGUGGUUUUCCCCUGAUAGUGCUAAGGGGGCCUGGAAGUUUGGACUGGGCAGAGCUCAACACAGCGUGGCAAAGUGGCUGUGGCUAGACUGCCUCUCUGGAUUCCUCGUCACUCAGCAGGGCAUCUCUGAGAGAAAUGCC

Variants of B1 are the subject of this series. Description: self-cleavage, relative activity (ratio to wild type); higher = more cleavage; in vitro, sequencing; the parent is a self-cleaving ribozyme.
In the case of U73C C120U U134C U143C, the self-cleavage came to 1.91.
Regarding A69U A78G A141G, the self-cleavage was 0.02.
Then A69G U81A A142G, with 0.22; and U73A U102C A142G, with 0; and A65U U130A C131A, with 0.24.
Then A67G A92U G114A, with 0.17.
As for A67U U81C U104A, the self-cleavage was 0.08.
In the case of A67G A78G U100C it was 0; in that of A67U U115A A141G, 0.09.
As to A65G G106U A129U C146U, the self-cleavage amounted to 0.07.
In the case of A67G U132C A140G A142G it was 0; in that of A69U U81A A107G, 0.05.
As to U73C G75A A107U G137U, the self-cleavage turned out to be 1.12.
Then A69U A129U A136U, with 0.02.
For the variant A67G A77U A141G, the self-cleavage was 0.42.
As to U73C U81G U100C, the self-cleavage amounted to 0.
Consider G72A U81C U104A A136G A140G, for which the self-cleavage turned out to be 0.31.
In the case of A67G A69G A121U it was 0.2; in that of C68U A79G A92G, 0.1; in that of A65G U96A A107G A141G, 0.13.
Consider A67G U108C U109C, for which the self-cleavage was determined as 0.61.
As for A65G G105U G106A A141G, the self-cleavage was 0.03.
Regarding C68U A129G A138G A141G, the self-cleavage was determined as 0.6.
Then U73C A138U A142G, with 2.8; and A67G A117G A142G, with 0.
Then A65G U87C A92G, with 0; and U73C C84U A140G, with 0.56.
In the case of A67G A69U U100A it was 0.26; in that of U73C G86A U108C, 0.1; in that of A69U A121U A129G, 0.05.
For the variant A69G G72A A78G A142G, the self-cleavage stood at 0.26.
In the case of A69U U73A A94G U115C C120A U132C, the self-cleavage was 0.
For U73C A77G U96A C99U U104C, the self-cleavage worked out at 0.
In the case of A65U A77G U112C it was 0.26; in that of A67G U73A U87C A107G, 0.
Then A67U U104A U119A U143C, with 0.07.
Then A69G G72U U104C A124U, with 0; and A69G U96G U109C, with 0; and G75A A77U A92U, with 0.32.
For the variant G72A U91C U134C, the self-cleavage was 0.92.
In the case of U73C A92G A136U it was 0.
Then U73C U130C A138G, with 2.36.
Turning to A67G A77G U91A, the self-cleavage is 0.46.
Consider A67G U119A A136U A140G A141G, for which the self-cleavage stood at 0.
For the variant A69G A77G U100C, the self-cleavage was determined as 0.
Then A69G U73A U102A A142C, with 0.17; and A67G G72A U134C, with 0.6.
In the case of A67G G74A A79G U134A it was 0.06; in that of A67G A69G U104A A124G, 0; in that of A69U U85C U96C U134A, 0.03.
In the case of U73A A77U U96C it was 0; in that of A65U U112C G125U A140G, 0.11; in that of A67U U73G U132C, 0.07.
Consider A69G G126A U130A U134C, for which the self-cleavage stood at 0.45.
Turning to A67C U81A U96A A117G, the self-cleavage amounted to 0.
For the variant G74A C120A A124U U134A, the self-cleavage worked out at 1.96.
Then A67G U81A G122C A140G, with 0.76; and G75A U87A A94G A117G, with 0.04; and A69G U130C A136U, with 0.61.
Regarding A65G U81C A124U A140G, the self-cleavage amounted to 0.
In the case of C68U U73A A79G U100C A141G it was 0.44; in that of A67G A78G C145G, 0.36.
Then U73G G82A A92G, with 0.06.
Then A65U C113A A136C, with 0.08.
On to A69C C120A U134C A142G, for which the self-cleavage came out at 0.08.
Then A65G U73A A141G, with 0.
Take U73C U85C C99U: the self-cleavage was 0.26.
Then A67G U81C U100C, with 0; and U73A U96C G135A, with 0.12.
Turning to A69G A107U U108C, the self-cleavage amounted to 1.74.
Then G72A A77G U109C, with 1.79.
Consider U73A U108C A117G U134C, for which the self-cleavage worked out at 2.76.
Then U73A U130C U132C, with 1.63; and G75U U104A U119C, with 1; and A69U G72A A78G, with 0.06.
In the case of A69G G70A U102A it was 0.04; in that of A67U U73C U132C, 0.38.
Then A65U U132C G139A, with 0.13; and G74A C103A A140U A141G, with 1.41.
Consider A65U C71G A117G U130C A141U, for which the self-cleavage was determined as 0.2.
With C66U A69G A107U, the self-cleavage was determined as 0.
Take A65G U85C G93A A94U: the self-cleavage turned out to be 0.05.
Then A67G U102C A136G, with 0.64; and U73A A107G U112A A136U, with 1.92; and A67G A69G A140G, with 0.
Then C71U A94U U108A, with 0.17.
As for C71A U91C U100G U108A, the self-cleavage was found to be 0.02.
Then A65U U130C A136U A141G, with 0.06.
Turning to A69G G122A U130C, the self-cleavage came to 0.82.
In the case of C71A U102A U143A, the self-cleavage is 0.51.
In the case of A65G U81A A94U it was 0.03; in that of G70A G83C A138G, 0.54.
In the case of A65U U85C A121G it was 0; in that of G72A U73C U115A A117G C145A, 1.91; in that of A65G U119A U130C A142G, 0.12.
Regarding C71U U81A A142G, the self-cleavage was determined as 0.8.
In the case of U73C U87C A142G it was 0.45; in that of A65U U73A U108C U143G, 0.22; in that of A69G A77U G83A U115C A142G, 0.11.
Then A69U U73A A129G, with 0.08; and A65G U115A U143G, with 0.1; and C68U U102A C116U, with 0.14.
As for A67G A121U U130A, the self-cleavage stood at 0.5.
Then A69U U96C U104A A121G, with 0; and A67U U73C A129G, with 0.48.
Take C68U U108A A138G: the self-cleavage came out at 0.02.
With A67G U108C A141G, the self-cleavage was 0.26.
Then G72A U85C G144A, with 0.1.
Consider A67G U85A U87C A138G, for which the self-cleavage is 1.23.
In the case of A69U U91C G106A C116U A140C it was 0; in that of A67U A69U A77G U104C U108C U115A, 0; in that of C68U C99U A136G, 0.04.
As to C66U A78G U87C U100A, the self-cleavage came out at 0.01.
On to A69G C111A U119A U130C, for which the self-cleavage is 0.18.
In the case of A67G U100C C145G it was 0.97.
Then G72A U85A U96A, with 0.02; and U73A C101U U115C, with 1.91.
Turning to U73C G97A A129G A136G, the self-cleavage was 0.18.
As to G75A U85C A121G U130A A138G, the self-cleavage came out at 0.53.
Then U73A U81A A92G U115C, with 0.28; and A67G U87G A138G, with 0.27.
Then A69G U100C G122A, with 0.12; and U73A C99U A142G, with 0.55.
For C68A U104C U134C A140G, the self-cleavage was 0.
As for G70A G83U A124C U132C A136G U143A, the self-cleavage is 0.12.
With A69G C76G A121G A141U, the self-cleavage is 0.98.
Then G72U A136U A140G, with 0.99; and A65G U73A U130C, with 0.12.
With A67G U112C U115A A141G, the self-cleavage was determined as 0.41.
As to A67G A107G A138G, the self-cleavage is 0.81.
In the case of C66U A79G U87G A94G U109A it was 0; in that of U73G G74A U134C, 1.31; in that of G74A U85A U143C, 0.04.
In the case of A67U C128A A138G it was 0.1; in that of U73C G93A U100C, 0.
As to A69G A79G A94G, the self-cleavage is 0.
In the case of A65U U100C U109A A138G A140U it was 0.28; in that of C66U A69G U108C U132A U143A, 0.05.
In the case of A69U A78G A107G it was 0.03.
Take A69G A129G A142G: the self-cleavage was found to be 0.41.
In the case of A65G U87A U108A it was 0; in that of A69U U73A C128A C146U, 0.
In the case of A69C A78G C111A U119C A136G it was 0; in that of U73C A107G A142G, 0; in that of A65U A124G U134C, 0.
Take C66U U85C U104A: the self-cleavage turned out to be 0.03.
Consider C71U A79G A117G, for which the self-cleavage stood at 0.77.
Then U73A U102C U119A U134C, with 2.12; and A65G U87A U119C, with 0.03.
In the case of A67G U81A U96A U112C it was 0.03.
Take A69G U102C A129G: the self-cleavage is 2.3.
In the case of G75A A107U A124U C128U it was 0.92; in that of G72U A79U U130C, 2.08.
Consider G72A A77G U85C A94G A140G, for which the self-cleavage is 0.
A65G U112A A138G: the self-cleavage is 0.09.
In the case of A67G A94G U104A A121C it was 0; in that of G74A U85C U132C A141G, 0.11.
Then G70U U100C A107G, with 0.06.
In the case of A69G U102A U112G G127A it was 0; in that of C68U A69G A138G, 0.19; in that of G75A A78U U87C U115C U130C, 0.68.
With U73C U102C G114A A136G, the self-cleavage turned out to be 2.58.
In the case of A69G G74A U130C it was 0.67; in that of C68A A69G A79G, 0.07.
For the variant A69U U100C U104C, the self-cleavage is 0.11.
Turning to A67G G105U U115C A121G U134G, the self-cleavage came to 0.95.
Then A67G A78G A141G, with 0.38.
